# The list shows a part of the results. Further columns of the screen follow, without active or inactive calls.
# Columns and labels:
# Test in all cases: Primary Screen for Target Class Profiling of Small Molecule Inhibitors of Methyltransferases
# [1] = target: Glycine N-methyltransferase (Homo sapiens) (UniProt Q14749); conditions: purified enzyme, MTase-Glo SAH luminescence; measured here: GNMT inhibition; at 40 µM; stronger effect = lower value
# How it was run: (§1)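 Each enzyme was reacted with SAM and its substrate, with compounds tested once at 40 uM; SAH formed was read by MTase-Glo luminescence.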
# [2] = target: Guanidinoacetate N-methyltransferase (Homo sapiens) (UniProt Q14353); conditions: purified enzyme, MTase-Glo SAH luminescence; measured here: GAMT inhibition; at 40 µM; stronger effect = lower value
# How it was run: as §1
# [3] = target: Histamine N-methyltransferase (Homo sapiens) (UniProt P50135); conditions: purified enzyme, MTase-Glo SAH luminescence; measured here: HNMT inhibition; at 40 µM; stronger effect = lower value
# How it was run: as §1
# [4] = target: Nicotinamide N-methyltransferase (Homo sapiens) (UniProt P40261); conditions: purified enzyme, MTase-Glo SAH luminescence; measured here: NNMT inhibition; at 40 µM; stronger effect = lower value
# How it was run: as §1
# [5] = target: Phenylethanolamine N-methyltransferase (Homo sapiens) (UniProt P11086); conditions: purified enzyme, MTase-Glo SAH luminescence; measured here: PNMT inhibition; at 40 µM; stronger effect = lower value
# How it was run: as §1
# % is set by controls: 0 for no effect and ±100 for the full control effect.
SMILES,"activity change, negative = inhibition [1] [%]","activity change, negative = inhibition [2] [%]","activity change, negative = inhibition [3] [%]","activity change, negative = inhibition [4] [%]","activity change, negative = inhibition [5] [%]"
Cc1n[nH]c(C)c1CCC(=O)Nc1cccn2nc(C3CCC3)nc12,-5.11,-5.12,-3.57,-4.35,-6.52
COc1ccc(CNC(=O)c2sc3nc(C)cc(C)c3c2N)cc1,-17.3,-4.27,-2.58,-15.7,-8.01
CC1=C2C=C(CO)C(CO)CCC2(C)CCC1=O (stereo not given),1.49,7.06,4.38,-6.55,3.85
CCc1ccc(N2C(=O)c3cc(C(C)(C)C)nn3CC2(C)C(=O)NC2CCCCC2)cc1 (stereo not given),-9.02,-3.22,-3.84,-9.84,-6.73
COc1ccc(-c2cc3onc(-c4ccncc4)c3c(=O)n2C)cc1,-16.9,-14,-10.8,-40.3,-13.1
CC1c2cccn2CCN1C(=O)Nc1ccc(F)cc1 (stereo not given),-1.81,0,6.26,-3.53,0.834
CC(C)c1noc([C@@H]2C[C@H](NS(=O)(=O)Cc3ccccc3)CN2C)n1,-2.08,0.835,0.693,1.52,-1.3
Cc1ccccc1Cn1nc2n(Cc3ccccc3)c(=O)c3ccc(C(=O)NCC(C)C)cc3n2c1=O,3.67,0,9.05,1.33,4.86
Cc1ccc(S(=O)(=O)c2nnn3c2nc(NCCCN2CCCC2=O)c2cc(Cl)ccc23)cc1C,-19,0.934,-5.53,-6.34,-6.28
Cc1ccc(C(=O)N2CCc3nc(-c4cn[nH]c4)[nH]c3C2)cc1N1CCNC1=O,-6.32,-7.88,-3.59,-12.5,-8.34
O=C(CN1C(=O)COc2ccc(C(=O)COc3ccccc3F)cc21)Nc1ccc(F)cc1,-6.5,-3.73,-0.54,-9.03,3.56
CC(=O)Nc1c2n(c3ccccc13)CC(C)(C(=O)NC1CCCCC1)N(Cc1ccccc1C)C2=O (stereo not given),2.83,0,5.24,7.79,3.1
O=c1c2ccccc2n2c(SCc3cccc(F)c3)nnc2n1Cc1ccccc1,-0.084,-1.14,-2.63,-9.33,-5.57
CC1(C(=O)NC2CCCCCCC2)Cn2c(cc3occc32)C(=O)N1c1cccc(Cl)c1 (stereo not given),-1.99,-7.88,1.75,-1.74,-1.82
Cc1noc(C)c1-c1cc2c(c(-c3ccccc3Oc3ccccc3)c1)C(=O)N(C)C2,-19.6,-11.3,-24.7,-25.4,-8.79
CCCn1c(=O)c2ccc(C(=O)NCC(C)C)cc2n2c(SCC(=O)Nc3ccc(CC)cc3)nnc12,5.1,4.54,5.85,-11.2,-0.594
CCOC(=O)C[C@@H]1C[C@@H](C(C)C)[C@H](CNS(=O)(=O)c2ccccc2)C=C1C,-4.5,-0.709,-0.613,-5.05,-2.06

# Source: PubChem BioAssay AID1745853 (National Center for Advancing Translational Sciences (NCATS), 2022)
